How the values were obtained:
[1] = target: T1, CD24 on the surface of human liver cancer cells (Huh-7, BEL-7402, shCD24 Huh-7) (human) (UniProt P25063); assay: flow cytometry on Huh-7 cells, 250 nmol/L antibody, FITC anti-human IgG(H+L)
T1 sequence (looked up): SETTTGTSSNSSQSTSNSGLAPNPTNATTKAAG

[2] = target: T1, CD24 on the surface of human liver cancer cells (Huh-7, BEL-7402, shCD24 Huh-7) (human); assay: flow cytometry on BEL-7402 cells, 250 nmol/L antibody, FITC anti-human IgG(H+L)
[3] = target: T1, CD24 on the surface of human liver cancer cells (Huh-7, BEL-7402, shCD24 Huh-7) (human); assay: flow cytometry on CD24 knock-down Huh-7 (shCD24 Huh-7) cells, 250 nmol/L antibody, FITC anti-human IgG(H+L)

结合率 (percent of cells bound) [1]: 86.9%
结合率 (percent of cells bound) [2]: 44%
结合率 (percent of cells bound) [3]: 28.6%
B1: 靶向CD24的双特异性融合抗体cG7-sTGFBR2 (anti-CD24 humanized chimeric antibody cG7 fused at the heavy chain C-terminus via Gly4Ser to the human TGFBR2 extracellular domain … (bispecific antibody, human IgG1, kappa)
heavy: QVKLEESGGGLVQPGGSLKISCAASGFDFSRYWMSWVRQAPGKGLEWIGEINPDSSTINYTPSLRDKFIISRDNAKNTLYLQMSKVRYEDTSLYYCARQGDYWGQGTSVTVSSASASTKGPSVFPLAPSSKSTSGGTAALGCLVKDYFPEPVTVSWNSGALTSGVHTFPAVLQSSGLYSLSSVVTVPSSSLGTQTYICNVNHKPSNTKVDKRV[human IgG1 Fc cut from this listing]GGGGSGSTIPPHVQKSVNNDMIVTDNNGAVKFPQLCKFCDVRFSTCDNQKSCMSNCSITSICEKPQEVCVAVWRKNDENITLETVCHDPKLPYHDFILEDAASPKCIMKEKKKPGETFFMCSCSSDECNDNIIFSEEYNTSNPD
light: DIVMTQTPLSLSVTIGQPASISCKSSQSLLHSDGKTYLNWLLQRPGQSPKRLIYLVSKLDSGVPDRFTGSGSGTDFTLKVSRVEAEDLGVYYCWQGAHFPYTFGGGTKLEIKVDTVAAPSVFIFPPSDEQLKSGTASVVCLLNNFYPREAKVQWKVDNALQSGNSQESVTEQDSKDSTYSLSSTLTLSKADYEKHKVYACEVTHQGLSSPVTKSFNRGEC
